# Among all 310,000 compounds or so, about 14,000 (4.5%) showed an effect of 50% or more. Effects have a minus sign here. The list shows a part of the results.
# Target: human ether-à-go-go-related gene (hERG) potassium channel (human, UniProt Q12809)
# Experiment: primary screen, population patch clamp on CHO cells stably expressing hERG
# 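Also: peak tail current of the secondary pulse compared with the same well before compound.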
# Sequence of human ether-à-go-go-related gene (hERG) potassium channel (Q12809 whole entry, looked up): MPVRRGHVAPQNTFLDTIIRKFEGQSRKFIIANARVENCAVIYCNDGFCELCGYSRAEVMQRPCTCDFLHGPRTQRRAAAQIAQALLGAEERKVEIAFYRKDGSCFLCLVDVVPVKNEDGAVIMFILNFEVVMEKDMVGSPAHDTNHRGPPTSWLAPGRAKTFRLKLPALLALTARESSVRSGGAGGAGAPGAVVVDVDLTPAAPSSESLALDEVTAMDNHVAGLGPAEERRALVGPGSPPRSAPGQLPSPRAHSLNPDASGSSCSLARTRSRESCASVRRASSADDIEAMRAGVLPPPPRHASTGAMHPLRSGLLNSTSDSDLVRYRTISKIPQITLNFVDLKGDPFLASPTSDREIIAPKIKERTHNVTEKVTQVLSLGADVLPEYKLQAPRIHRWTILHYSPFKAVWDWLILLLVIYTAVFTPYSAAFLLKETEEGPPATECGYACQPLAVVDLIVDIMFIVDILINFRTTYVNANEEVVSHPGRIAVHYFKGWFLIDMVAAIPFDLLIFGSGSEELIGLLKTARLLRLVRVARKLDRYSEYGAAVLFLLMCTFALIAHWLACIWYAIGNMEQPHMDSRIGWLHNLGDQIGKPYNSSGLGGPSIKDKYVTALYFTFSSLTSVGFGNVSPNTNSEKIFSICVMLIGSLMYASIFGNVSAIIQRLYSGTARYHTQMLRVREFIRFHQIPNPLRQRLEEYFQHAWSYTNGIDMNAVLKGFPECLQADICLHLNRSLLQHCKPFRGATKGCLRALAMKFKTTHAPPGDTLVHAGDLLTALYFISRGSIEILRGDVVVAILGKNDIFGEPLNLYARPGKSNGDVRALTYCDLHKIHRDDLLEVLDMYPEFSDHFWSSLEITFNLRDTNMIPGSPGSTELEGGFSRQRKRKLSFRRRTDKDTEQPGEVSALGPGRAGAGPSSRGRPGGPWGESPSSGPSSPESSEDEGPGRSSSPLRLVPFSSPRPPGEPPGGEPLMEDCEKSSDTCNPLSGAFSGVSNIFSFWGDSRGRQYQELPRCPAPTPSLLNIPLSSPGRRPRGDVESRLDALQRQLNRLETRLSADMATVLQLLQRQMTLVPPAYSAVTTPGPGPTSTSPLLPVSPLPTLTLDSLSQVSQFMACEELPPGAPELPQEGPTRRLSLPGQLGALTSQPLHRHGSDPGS
row,SMILES,"hERG current change (%, negative = inhibition) at 10uM"
1,CCCCCNC(=O)CSC1=N/C(=C\c2ccc(Cl)c(Cl)c2)C(=O)N1CC,1.42%
2,Br.C[C@@H]1NCCc2cc(O)c(O)cc21,14.9%
3,CS(=O)(=O)N1CCN(c2ccc([N+](=O)[O-])c(NCCN3CCOCC3)c2)CC1,-1.21%
4,Cl.O=C(NCCN1CCOCC1)C12CC3CC(C1)CC(c1ccccc1)(C3)C2,0.719%
5,O=C(c1cc(-c2cccnc2)nc2ccccc12)N1CCC2(CC1)OCCO2,-4.27%
6,CCCn1nc(C(=O)OCC(=O)Nc2cccc(OC)c2)c2ccccc2c1=O,3.96%
7,CCCCC(=O)N=c1sc2c(OC)ccc(OC)c2n1C,20.1%
8,O=C(CN1C(=O)C2C3C=CC(C3)C2C1=O)NCC1COc2ccccc2O1 (stereo not shown),4.22%
9,COc1ccc(OC)c(-n2c(O)c(C=NCCN3CCNCC3)c(=O)[nH]c2=S)c1,20.4%
10,CCOc1ccc(NC(=O)c2cnsn2)cc1,8.76%
11,O=S1(=O)N=C(N(CCO)/N=C/c2ccc(Br)cc2)c2ccccc21,15%
12,O=C(NCc1ccc2c(c1)OCO2)C1CCCN1S(=O)(=O)c1ccc(F)cc1 (stereo not shown),-22.5%
13,Cc1cccc(NC(=O)C2CCCN(c3nc(C)cc(C)n3)C2)c1 (stereo not shown),-11.2%
14,O=[N+]([O-])c1ccc(NCCO)c2ncccc12,2.11%
15,Cc1ccc(S(=O)(=O)N(C)C)cc1NC(=O)c1ccc(OC(F)(F)F)cc1,-51.3%
16,COc1cccc(NC(=S)NCc2ccc(F)cc2)c1,-4.25%
17,COc1ccc(-c2nnc(SCC(=O)NCC3CCCO3)n2C)cc1 (stereo not shown),9.8%
18,Cc1c(Cl)cccc1NC(=O)C1COc2ccccc2O1 (stereo not shown),8.79%
19,Cc1cccnc1NC(=O)c1ccc(S(=O)(=O)NCc2ccco2)cc1,10.5%
20,N#Cc1cccnc1N1CCC(C(N)=O)CC1,12.5%
21,O=C(Cn1cc([N+](=O)[O-])cn1)Nc1nccs1,9.77%
22,COC(=O)C(C)Oc1ccc(-c2nccc(-c3ccc(F)cc3)n2)cc1 (stereo not shown),23.1%
23,COC(=O)c1ccc(/C=C2\CCn3c2nc2cc(C(=O)O)ccc2c3=O)cc1,8.8%
24,COc1ccc(NC(=O)CSc2nc3[nH]c(=O)[nH]c(=O)c3s2)cc1OC,25.9%
25,CC(C)(C)NC(=O)NC(=O)COC(=O)CNS(=O)(=O)c1ccc(Br)cc1Cl,51.6%

# — article PMC4336329 (PLoS ONE, 2015)
